Consider 2 compounds from PubChem BioAssay (NCI).

This assay relates to NCI-H322M lung. Description: NCI tumour cell line growth inhibition, 48 h.

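Grown in 96-well plates, cells were treated for 48 hours with each compound at five concentrations. Insufficient inhibition: endpoint recorded as highest concentration tested. GI50 marks 50% less growth. At the TGI there is no net growth.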

For `Cc1ccc2c(n1)C(=O)C(Cl)=C(Nc1cc(C(F)(F)F)cc(C(F)(F)F)c1)C2=O`, the GI50 is 15.5 µM and the TGI worked out at 31.8 µM.

With `O=C(NNc1nc2cc(F)cc(F)c2n2cccc12)c1cnccn1`, the GI50 is 0.26 µM and the TGI was determined as 11.7 µM.
